# Several values for one entry are separate records, joined by “and”; a condition that tells them apart may be missing. Identical values can stand only once. Inconclusive means that the source gave no clear call. Such entries were picked first, then a sample of the others. For some of these results: Potencies of inconclusive entries are doubtful fits and often do not repeat. More than one record can exist for a structure, and the calls need not agree. Activity calls are given as the source filed them. Unless noted, calls come from the whole dose curve; as a rule, active = well fitted curve in the direction sought with a large enough effect; inconclusive = small, poorly fitted or top-dose-only effect, or another doubt; inactive = no such curve, though single readings can be large; an effect the other way counts as inactive or inconclusive.
# Key:
# [1] = target: Calcium and integrin-binding protein 1 (Homo sapiens) (UniProt Q99828); experiment: Primary qHTS for Identification of Calcium Integrin Binding Protein 1 (CIB1) Competitor (AID 1508620); note: potency is the fitted concentration of half-maximal effect;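 for activity change, negative = inhibition: GST tagged CIB1 binding a fluorescein labelled alphaIIb integrin peptide tracer; top concentration of the series differs between compounds; % is set by controls: 0 for no effect and ±100 for the full control effect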
# Chain of UniProt Q99828 (Q99828 whole entry, looked up): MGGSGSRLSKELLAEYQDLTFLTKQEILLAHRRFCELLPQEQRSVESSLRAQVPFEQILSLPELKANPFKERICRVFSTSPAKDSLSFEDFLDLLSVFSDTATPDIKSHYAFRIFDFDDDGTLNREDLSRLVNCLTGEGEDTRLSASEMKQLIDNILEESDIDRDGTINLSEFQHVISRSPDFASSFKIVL
# How it was run: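 Fluorescence polarization competition: GST-tagged CIB1 (1 uM final) preincubated with compound 15 min at room temperature, then FITC-labelled alphaIIb peptide (100 nM final) added. After 15 min at room temperature, polarization read at Ex 480/Em 540.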
# [2] = A High-Content qHTS Against Drug Library for the Identification of Small Molecules that Inhibit DYT1 Early Onset Primary Dystonia-Associated Cell Pathology (AID 1645839; calls by dose curve; note: potency is the fitted concentration of half-maximal effect)
# How it was run: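 Flp-In T-REx 293 cells with tetracycline-inducible EGFP-delE hTOR1A (WT EGFP-hTOR1A as reference), 800 cells/well; compound added with tetracycline, 48 h at 37 C. Fixed, permeabilized cells imaged; %pathology (punctate TorsinA) primary, cell count counterscreen.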
# [3] = target: Cytochrome P450 2D6 (Homo sapiens) (UniProt P10635); experiment: Cytochrome P450 family 2 subfamily D member 6 (CYP2D6) small molecule antagonists: luciferase biochemical (cell-free) qHTS assay (AID 1645840; active = well fitted curve in the direction sought with a large enough effect in the repeat runs; inconclusive = weak or mixed curves; inactive = no such curve, though single readings can be large; an effect the other way counts as inactive or inconclusive; note: potency is the fitted concentration of half-maximal effect; nearly all actives have a fitted effect of over 55% in size)
# Chain of UniProt P10635 (P10635 whole entry, looked up): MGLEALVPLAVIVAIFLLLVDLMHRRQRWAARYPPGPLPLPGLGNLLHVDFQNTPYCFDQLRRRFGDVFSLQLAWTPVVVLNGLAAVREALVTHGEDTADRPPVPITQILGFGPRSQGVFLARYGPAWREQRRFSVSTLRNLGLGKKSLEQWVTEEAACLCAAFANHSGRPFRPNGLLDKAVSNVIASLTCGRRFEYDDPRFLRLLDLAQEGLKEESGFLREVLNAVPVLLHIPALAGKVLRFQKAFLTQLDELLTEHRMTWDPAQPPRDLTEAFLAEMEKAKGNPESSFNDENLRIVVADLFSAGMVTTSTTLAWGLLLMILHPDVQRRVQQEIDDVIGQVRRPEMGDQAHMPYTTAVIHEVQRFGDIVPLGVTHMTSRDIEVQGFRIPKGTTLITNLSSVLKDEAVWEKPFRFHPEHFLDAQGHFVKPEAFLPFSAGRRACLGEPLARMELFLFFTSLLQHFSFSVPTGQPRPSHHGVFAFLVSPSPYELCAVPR
# How it was run: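 P450-Glo luminescent screen: recombinant CYP2D6 enzyme–proluciferin substrate mix preincubated with compound 10 min at room temperature, then NADPH regeneration added for 1 h at room temperature. Detection reagent added for 20 min; luciferin light read as relative luminescence units.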
# [4] = target: Cytochrome P450 2C9 (Homo sapiens) (UniProt P11712); experiment: Cytochrome P450 family 2 subfamily C member 9 (CYP2C9) small molecule antagonists: luciferase biochemical (cell-free) qHTS assay (AID 1645842; active = well fitted curve in the direction sought with a large enough effect in the repeat runs; inconclusive = weak or mixed curves; inactive = no such curve, though single readings can be large; an effect the other way counts as inactive or inconclusive; note: nearly all actives have a fitted effect of over 55% in size; note: potency is the fitted concentration of half-maximal effect; for activity change, negative = inhibition: % is set by controls: 0 for no effect and ±100 for the full control effect)
# Chain of UniProt P11712 (P11712 whole entry, looked up): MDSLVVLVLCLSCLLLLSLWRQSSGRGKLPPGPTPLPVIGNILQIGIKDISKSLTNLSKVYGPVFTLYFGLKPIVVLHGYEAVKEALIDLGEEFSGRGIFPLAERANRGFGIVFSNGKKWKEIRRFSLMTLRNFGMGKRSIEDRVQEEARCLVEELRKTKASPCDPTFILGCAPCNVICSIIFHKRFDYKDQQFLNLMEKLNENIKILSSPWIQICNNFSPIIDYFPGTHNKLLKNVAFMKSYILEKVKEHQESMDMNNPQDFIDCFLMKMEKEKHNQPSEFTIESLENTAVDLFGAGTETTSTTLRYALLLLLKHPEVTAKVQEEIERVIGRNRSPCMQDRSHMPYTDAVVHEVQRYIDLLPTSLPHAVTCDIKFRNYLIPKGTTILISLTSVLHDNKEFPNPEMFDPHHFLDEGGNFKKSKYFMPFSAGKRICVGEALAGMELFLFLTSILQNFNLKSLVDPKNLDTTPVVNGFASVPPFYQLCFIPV
# How it was run: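 Luminescence, after 20 min with luciferin detection reagent, reflected CYP2C9 turnover during a 1 h NADPH-driven reaction at 37C. Enzyme-substrate mix contained 0.4% bovine serum albumin and was preincubated with compound 10 min at room temperature.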
# [5] = Primary qHTS for inhibitors of nuclear receptor binding SET domain protein 2 (NSD2) in an RCH-ACV wild type WT cells (2C) (AID 1645877); note: potency is the fitted concentration of half-maximal effect; nearly all actives have a fitted effect of over 70% in size
# [6] = Counterscreen qHTS for small molecule stabilizers of the endoplasmic reticulum resident proteome: GLuc-NoTag assay (AID 1508627); details: Gaussia luciferase NoTag secretion counterscreen, luminescence; thapsigargin 100 nM for final 4 h; note: potency is the fitted concentration of half-maximal effect
# How it was run: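 SH-SY5Y cells stably expressing constitutively secreted GLuc without SERCaMP tag, exposed to compound for 19 hr, then to 100 nM thapsigargin for 4 hr at 37C. Medium luciferase was read by coelenterazine luminescence without lysis.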
# [7] = Confirmatory qHTS for small molecule stabilizers of the endoplasmic reticulum resident proteome: Secreted ER Calcium Modulated Protein (SERCaMP) assay (AID 1508628); note: potency is the fitted concentration of half-maximal effect; nearly all actives have a fitted effect of over 40% in size
# How it was run: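 We seeded SH-SY5Y-GLuc-SERCaMP cells, added compounds (three concentrations in the primary run, eleven up to 76.6 uM in confirmation), incubated 16 h, depleted ER calcium with thapsigargin, and read luciferase 4 h later.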
# [8] = Cell Viability qHTS for small molecule stabilizers of the endoplasmic reticulum resident proteome (AID 1508629); details: cell viability counter-screen, 100 nM thapsigargin for final 4 h;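 note: human SH-SY5Y neuroblastoma cells carrying the GLuc-SERCaMP reporter; compound exposure about 46 h in total before the viability read; % is set by controls: 0 for no effect and ±100 for the full control effect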
# [9] = Primary qHTS for inhibitors of nuclear receptor binding SET domain protein 2 (NSD2) in an isogenic RCH-ACV NSD2 p.E1099K mutant (9B) (AID 1645876); note: nearly all actives have a fitted effect of over 70% in size; note: potency is the fitted concentration of half-maximal effect
# [10] = Primary qHTS for small molecule stabilizers of the endoplasmic reticulum resident proteome: Secreted ER Calcium Modulated Protein (SERCaMP) assay (AID 1508630); details: SH-SY5Y GLuc-SERCaMP (Gaussia luciferase released on ER calcium loss) secretion, thapsigargin, luminescence; activity change, negative = inhibition: at 38.4 µM (top of the series); note: potency is the fitted concentration of half-maximal effect
# How it was run: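 GLuc-SERCaMP-expressing SH-SY5Y cells, pretreated 16 h with compound, are challenged with thapsigargin to empty ER calcium stores; after 4 h, coelenterazine is added directly to the medium and luminescence is imaged.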
# [11] = target: Cytochrome P450 3A4 (Homo sapiens) (UniProt P08684); experiment: Cytochrome P450 family 3 subfamily A member 4 (CYP3A4) small molecule antagonists: luciferase qHTS assay (AID 1645841; active = well fitted curve in the direction sought with a large enough effect in the repeat runs; inconclusive = weak or mixed curves; inactive = no such curve, though single readings can be large; an effect the other way counts as inactive or inconclusive; note: potency is the fitted concentration of half-maximal effect; nearly all actives have a fitted effect of over 45% in size)
# Chain of UniProt P08684 (P08684 whole entry, looked up): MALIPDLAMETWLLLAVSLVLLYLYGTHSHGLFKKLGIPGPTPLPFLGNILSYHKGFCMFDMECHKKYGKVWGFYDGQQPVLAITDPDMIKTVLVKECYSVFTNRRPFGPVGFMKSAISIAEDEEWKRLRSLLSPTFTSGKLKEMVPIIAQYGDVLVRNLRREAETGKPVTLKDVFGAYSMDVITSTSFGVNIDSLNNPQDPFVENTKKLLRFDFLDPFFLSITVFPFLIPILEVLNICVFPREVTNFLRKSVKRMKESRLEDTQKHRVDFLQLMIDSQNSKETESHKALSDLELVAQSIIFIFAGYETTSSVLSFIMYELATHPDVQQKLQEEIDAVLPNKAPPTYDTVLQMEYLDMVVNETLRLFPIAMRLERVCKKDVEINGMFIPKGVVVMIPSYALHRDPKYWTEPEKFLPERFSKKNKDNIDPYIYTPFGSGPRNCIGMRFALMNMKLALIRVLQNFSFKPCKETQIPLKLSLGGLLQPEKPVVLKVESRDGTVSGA
# How it was run: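 P450-Glo CYP3A4 enzyme with proluciferin substrate preincubated 10 min with compound at room temperature, then NADPH regeneration 1 h. Luciferin detection reagent added for 20 min; luminescence recorded. Ketoconazole positive control.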
# [12] = target: Rap guanine nucleotide exchange factor 4 (Homo sapiens) (UniProt Q8WZA2); experiment: Confirmatory qHTS for agonist of cAMP-regulated guanine nucleotide exchange factor 4 (EPAC2) (AID 1645884); details: EPAC2 GEF activity, Rap1B-BODIPY-GDP fluorescence; activation: at 51.3 µM (top of the series), percent relative to cAMP agonist control;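 note: nucleotide exchange releases bodipy-GDP from Rap1 and this lowers its fluorescence; nearly all actives have a fitted effect of over 65% in size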; note: potency is the fitted concentration of half-maximal effect; for activation: % is set by controls: 0 for no effect and ±100 for the full control effect
# Chain of UniProt Q8WZA2 (Q8WZA2 whole entry, looked up): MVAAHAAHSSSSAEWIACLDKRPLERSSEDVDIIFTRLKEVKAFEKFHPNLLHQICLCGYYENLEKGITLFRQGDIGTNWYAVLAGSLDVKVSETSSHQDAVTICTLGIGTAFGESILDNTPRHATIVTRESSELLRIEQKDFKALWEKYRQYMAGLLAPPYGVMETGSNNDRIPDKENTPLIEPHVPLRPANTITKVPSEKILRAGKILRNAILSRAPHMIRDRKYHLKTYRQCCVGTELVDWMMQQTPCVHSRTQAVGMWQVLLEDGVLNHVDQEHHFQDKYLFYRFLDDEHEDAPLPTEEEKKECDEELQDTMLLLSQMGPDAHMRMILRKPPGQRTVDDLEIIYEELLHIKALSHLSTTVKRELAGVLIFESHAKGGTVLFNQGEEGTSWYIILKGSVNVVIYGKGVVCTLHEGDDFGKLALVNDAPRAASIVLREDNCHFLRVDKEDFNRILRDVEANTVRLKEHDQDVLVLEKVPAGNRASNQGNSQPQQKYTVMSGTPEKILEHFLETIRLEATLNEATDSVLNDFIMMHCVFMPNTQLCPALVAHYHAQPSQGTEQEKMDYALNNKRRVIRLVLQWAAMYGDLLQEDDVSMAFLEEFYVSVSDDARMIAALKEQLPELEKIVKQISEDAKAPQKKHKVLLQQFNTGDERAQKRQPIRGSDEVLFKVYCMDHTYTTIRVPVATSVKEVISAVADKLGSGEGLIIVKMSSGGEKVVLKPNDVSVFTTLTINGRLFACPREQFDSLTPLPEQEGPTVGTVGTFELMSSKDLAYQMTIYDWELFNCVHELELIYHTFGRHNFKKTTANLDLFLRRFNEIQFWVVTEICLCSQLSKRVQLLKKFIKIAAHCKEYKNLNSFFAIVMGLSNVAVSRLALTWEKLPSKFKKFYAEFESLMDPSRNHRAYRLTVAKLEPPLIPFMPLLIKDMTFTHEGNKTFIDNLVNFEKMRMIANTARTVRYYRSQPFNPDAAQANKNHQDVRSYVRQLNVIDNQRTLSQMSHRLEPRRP
# [13] = target: Rap guanine nucleotide exchange factor 4 (Homo sapiens) (UniProt Q8WZA2); experiment: Confirmatory qHTS for antagonist of cAMP-regulated guanine nucleotide exchange factor 4 (EPAC2) (AID 1645885); note: % is set by controls: 0 for no effect and ±100 for the full control effect; nearly all actives have a fitted effect of over 25% in size
# [14] = target: Rap guanine nucleotide exchange factor 3 (Homo sapiens) (UniProt O95398); experiment: Counterscreen qHTS for agonist of cAMP-regulated guanine nucleotide exchange factor 3 (EPAC1) (AID 1645889); note: potency is the fitted concentration of half-maximal effect; nearly all actives have a fitted effect of over 40% in size
# Chain of UniProt O95398 (O95398 whole entry, looked up): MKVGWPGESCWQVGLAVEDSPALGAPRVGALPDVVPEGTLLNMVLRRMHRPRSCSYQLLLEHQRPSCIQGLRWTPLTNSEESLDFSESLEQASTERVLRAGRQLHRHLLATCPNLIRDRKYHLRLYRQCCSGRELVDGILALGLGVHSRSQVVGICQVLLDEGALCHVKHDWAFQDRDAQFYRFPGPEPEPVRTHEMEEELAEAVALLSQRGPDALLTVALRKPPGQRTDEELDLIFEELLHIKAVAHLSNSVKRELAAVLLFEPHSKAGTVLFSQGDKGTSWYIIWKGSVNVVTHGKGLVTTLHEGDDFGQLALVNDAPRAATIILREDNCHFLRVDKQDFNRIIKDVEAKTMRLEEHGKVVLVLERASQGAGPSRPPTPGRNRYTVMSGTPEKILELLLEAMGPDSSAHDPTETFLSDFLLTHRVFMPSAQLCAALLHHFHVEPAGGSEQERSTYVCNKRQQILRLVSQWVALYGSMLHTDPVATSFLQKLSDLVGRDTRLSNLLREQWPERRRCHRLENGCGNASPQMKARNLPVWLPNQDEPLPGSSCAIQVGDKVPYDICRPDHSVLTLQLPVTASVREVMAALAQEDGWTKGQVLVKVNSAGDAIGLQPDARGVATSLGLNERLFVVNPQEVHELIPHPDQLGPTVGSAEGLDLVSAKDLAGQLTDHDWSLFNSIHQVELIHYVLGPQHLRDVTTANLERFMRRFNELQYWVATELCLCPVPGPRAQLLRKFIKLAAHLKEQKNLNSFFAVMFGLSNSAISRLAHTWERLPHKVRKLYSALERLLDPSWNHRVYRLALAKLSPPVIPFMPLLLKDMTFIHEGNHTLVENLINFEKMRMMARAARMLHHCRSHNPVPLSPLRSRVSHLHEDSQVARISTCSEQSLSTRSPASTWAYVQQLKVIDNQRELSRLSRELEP
# How it was run: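 Rap1B–BODIPY-GDP (250 nM) with 50 uM GDP; compounds pin-transferred to 9.74 nM–152 uM final (activator) or from 7.32 nM upwards (inhibitor). Fluorescence Ex/Em 480/540 nm read at 5 and 30 min, then after adding cAMP or buffer, at room temperature.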
# [15] = NCATS anti-infectives library activity on the primary C. elegans qHTS viability assay (AID 1745855; calls by dose curve; note: potency is the fitted concentration of half-maximal effect)
# How it was run: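 Viability is taken from GFP fluorescence of PE254-GFP-FLuc C. elegans imaged by laser cytometry over 7 days. Ten L1 worms per well grow at 21 °C on TOP10 E. coli capsules with titrated compound; levamisole marks toxicity.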
# Tags give direction and shape of the fitted curve.
smiles,measurement,setting,value
C[C@@H](NCCCc1cccc(C(F)(F)F)c1)c1cccc2ccccc12,Potency,[1],inactive
same,Potency,[2],"inconclusive: 12.6 µM [inhibitor, partial curve, poor fit]"
same,Potency,[3],active: 30.9 nM and active: 19 nM
same,Potency,[4],"inconclusive: 27.5 µM [inhibitor, single point]"
same,Potency,[5],active: 15 µM and active: 14.8 µM
c1cc(-c2sc(-c3ccncc3)c(-c3ccncc3)c2-c2ccncc2)ccn1,Potency,[1],inactive
Nc1ncnc2c1ncn2[C@@H]1O[C@H](CO)C[C@@H]1O,Potency,[6],"inconclusive: 44.7 µM [inhibitor, single point]"
same,Potency,[7],"inconclusive: 44.7 µM [inhibitor, partial curve]"
same,max response,[8],inactive: 15.2%
N#C[C@H]1C[C@H]2C[C@@H]2N1C(=O)[C@@H](N)C12CC3CC(CC(O)(C3)C1)C2,Potency,[1],"inconclusive: 44.7 µM [inhibitor, partial curve]"
same,Potency,[4],inactive
same,Potency,[9],"inconclusive: 29.9 µM [inhibitor, single point]"
Cc1c(C)n(Cc2ccc(-c3ccccc3C(=O)O)cc2)c2ccc(C(=O)N[C@@H](C)c3ccc([N+](=O)[O-])cc3)cc12,Potency,[1],"inconclusive: 21.5 µM [inhibitor, partial curve, poor fit] and inconclusive: 31.6 µM [inhibitor, partial curve]"
same,Potency,[10],"inconclusive: 2.37 µM [inhibitor, full curve]"
same,Potency,[3],"inconclusive: 37.9 µM [inhibitor, single point]"
same,Potency,[9],"inconclusive: 23 µM [inhibitor, single point] and inconclusive: 23.5 µM [inhibitor, partial curve, poor fit]"
same,Potency,[5],"inconclusive: 29 µM [inhibitor, single point] and inconclusive: 14.8 µM [inhibitor, partial curve]"
Cn1cc(C=C2C(=O)Nc3cccnc32)c2ccccc21,Potency,[6],"inconclusive: 50.1 µM [inhibitor, single point]"
same,Potency,[7],"inconclusive: 15.8 µM [inhibitor, full curve]"
same,max response,[8],inactive: 16.6%
same,Potency,[10],"inconclusive: 31.6 µM [inhibitor, partial curve, poor fit]"
CC1(C)CCC(CN2CCN(c3ccc(C(=O)NS(=O)(=O)c4ccc(NCC5CCOCC5)c([N+](=O)[O-])c4)c(Oc4cnc5[nH]ccc5c4)c3)CC2)=C(c2ccc(Cl)cc2)C1,Potency,[1],"inconclusive: 39.8 µM [inhibitor, partial curve, poor fit]"
same,Potency,[9],active: 11.2 µM and inactive
CC1COC2(CCN(c3nc(=O)c4cc(C(F)(F)F)cc([N+](=O)[O-])c4s3)CC2)O1 (stereo not drawn),Potency,[1],inactive
same,Potency,[3],"inconclusive: 3.01 µM [inhibitor, single point]"
same,Potency,[11],"inconclusive: 1.9 µM [falling, full curve]"
same,Potency,[9],inactive
OCCN(CCO)c1nc(N2CCCCC2)c2nc(N(CCO)CCO)nc(N3CCCCC3)c2n1,Potency,[1],active: 11.2 µM
same,Potency,[7],"inconclusive: 31.6 µM [inhibitor, partial curve] and active: 31.6 µM"
same,Potency,[10],"inconclusive: 2.24 µM [inhibitor, partial curve, poor fit] and inconclusive: 4.47 µM [inhibitor, full curve, poor fit] and inconclusive: 10 µM [inhibitor, partial curve, poor fit]"
same,Potency,[2],"inconclusive: 25.1 µM [inhibitor, single point]"
same,Potency,[12],active: 79.3 µM [middle of 5 runs]
same,activation,[12],inconclusive: 33.9% [activator]
same,Potency,[13],inactive
same,Potency,[14],"inconclusive: 70.8 µM [activator, partial curve, poor fit]"
same,Potency,[15],active: 0.816 µM
CS(=O)(=O)OCCCCOS(C)(=O)=O,Potency,[1],inactive
same,Potency,[10],"inconclusive: 2.82 µM [inhibitor, full curve, poor fit] and inconclusive: 0.7 nM [inhibitor]"
same,Potency,[9],"inconclusive: 23.7 µM [inhibitor, single point]"
same,Potency,[5],"inconclusive: 33.5 µM [inhibitor, single point]"
CN1C(=O)C[C@H](C(=O)N[C@@H](Cc2cnc[nH]2)C(=O)N2CCC[C@@H]2C(N)=O)NC1=O,Potency,[1],inactive
same,Potency,[9],"inconclusive: 14.8 µM [inhibitor, partial curve, poor fit]"
same,Potency,[5],"inconclusive: 13.2 µM [inhibitor, partial curve, poor fit]"

# From PubChem BioAssay (NCATS)
